The full ranking holds about 110,000 compounds; the median of “z-score” is about -0.1, and the highest 2% start at about 2. This is one part of the list. Calls of active or inactive are those of the source.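 How the source made its calls: active means z-score in the third read window above 3 or below -3; inactive means the rest.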
target: Metabotropic glutamate receptor 8 (Rattus norvegicus) (UniProt P70579); assay: mGluR8 Gi/Go-coupled signaling modulation – cell-based, rat, thallium flux, HTS, primary screen (AID 488969); conditions: HEK293 rat mGluR8, GIRK (G protein-gated inwardly rectifying potassium channel) thallium flux, FluoZin2; at 10 µM; stronger effect = higher value; submaximal glutamate (EC20) added with thallium
UniProt P70579, sequence (P70579 whole entry, looked up): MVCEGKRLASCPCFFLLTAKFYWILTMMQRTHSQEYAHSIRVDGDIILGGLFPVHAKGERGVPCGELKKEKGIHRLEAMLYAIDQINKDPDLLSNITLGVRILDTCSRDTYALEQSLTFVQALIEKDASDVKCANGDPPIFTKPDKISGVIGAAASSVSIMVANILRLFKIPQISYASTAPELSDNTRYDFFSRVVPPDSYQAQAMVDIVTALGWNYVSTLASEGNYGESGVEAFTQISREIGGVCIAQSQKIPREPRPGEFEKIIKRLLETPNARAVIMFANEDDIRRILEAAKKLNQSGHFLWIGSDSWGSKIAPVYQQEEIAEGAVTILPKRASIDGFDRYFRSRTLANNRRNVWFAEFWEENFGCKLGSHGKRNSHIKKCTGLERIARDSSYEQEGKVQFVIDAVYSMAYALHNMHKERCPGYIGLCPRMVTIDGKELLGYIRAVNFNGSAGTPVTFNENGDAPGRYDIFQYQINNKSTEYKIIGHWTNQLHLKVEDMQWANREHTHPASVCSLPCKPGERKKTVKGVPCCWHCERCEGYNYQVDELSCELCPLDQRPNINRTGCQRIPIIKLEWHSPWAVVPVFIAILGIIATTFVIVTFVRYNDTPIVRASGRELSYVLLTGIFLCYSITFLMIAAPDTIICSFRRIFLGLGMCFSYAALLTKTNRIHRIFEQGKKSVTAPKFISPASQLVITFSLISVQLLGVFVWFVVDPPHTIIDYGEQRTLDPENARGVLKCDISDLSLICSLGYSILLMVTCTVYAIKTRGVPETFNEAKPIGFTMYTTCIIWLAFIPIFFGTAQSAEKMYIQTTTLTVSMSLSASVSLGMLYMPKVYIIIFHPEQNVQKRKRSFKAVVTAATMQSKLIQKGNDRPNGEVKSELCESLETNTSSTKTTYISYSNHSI

Compared with Cc1cccc(S(=O)(=O)c2c(N)n(-c3ccccc3)c3nc4ccccc4nc23)c1, Clc1cccc(/C(Cc2nc3ccccc3[nH]2)=N\Nc2ccccc2)c1 is higher in z-score: -0.103 for the first, -0.0881 for the second.

Compared with N=C(N)SCc1cccc2ccccc12, C=CCOc1ccccc1CNCc1cccnc1 is lower in z-score: 0.125 for the first, -0.321 for the second.

Going from Cc1ccc(C2CC2c2n[nH]c(=S)n2-c2ccc(Cl)cc2)cc1 (centres undefined) to Cc1ccc(COn2c(-c3ccc(Cl)cc3)nc3ccc([N+](=O)[O-])cc32)cc1, the z-score falls from 2.95 to -0.0457.

Going from O=C(C1CCCCC1)N1CCN(c2ccccc2F)CC1 to O=C(C1CCN(S(=O)(=O)c2ccc(Cl)cc2)CC1)N1CCOCC1, the z-score falls from 0.184 to -0.486.

Going from COC(=O)[C@H](CCSC)NC(=O)NCCC1=CCCCC1 to COCCNC(=O)c1c(N)sc2c1CCCC2, the z-score falls from 0.864 to -0.0249.

First: COc1cc(-c2nc(-c3ccccc3)c(-c3ccc(F)cc3)[nH]2)cc2c1OCO2
Second: Nc1ccc(-c2sc(N)nc2-c2ccccc2)cc1
The z-score of the first is lower: -0.0411 for the first, 0.254 for the second.

First: Cc1nc(SCC(=O)NCCc2ccccc2)n[nH]1
Second: COC(=O)Cn1c(C)nc2ccccc21
The z-score of the first is higher: -0.0848 for the first, -0.49 for the second.

Going from CCNc1nc(NC(C)C)nc(SCCOc2ccc(C)cc2)n1 to Cc1ccc(S(=O)(=O)Cn2nnnc2C(C(C)C)N2CCSCC2)cc1 (centres undefined), the z-score rises from -0.957 to 0.905.

Going from CN(CCc1ccccn1)C(=O)Nc1ccc(Cl)cc1 to O=C(CSc1nc2ccccc2o1)Nc1ccc(Cl)cc1, the z-score falls from 0.0615 to -0.438.

Going from Cc1ccc(OCC(=O)n2cnnc2N)c(C)c1 to COc1ccc(Br)cc1-c1nc(C)c(C(C)=O)n1O, the z-score falls from 0.38 to 0.0389.

Compared with Cc1ccc(Nc2nc(-c3sc(NC(=O)c4ccc([N+](=O)[O-])cc4)nc3C)cs2)cc1, Cc1ccc(C(=O)CNc2ccc(F)cc2)cc1 is lower in z-score: 0.0842 for the first, -0.146 for the second.

Going from O=C(NNC(=O)C1CCCO1)c1ccc(Cl)cc1 (centres undefined) to COc1cc(NC(=O)C2CCCO2)c(C(=O)O)cc1OC (centres undefined), the z-score falls from 0.119 to -0.238.

First: O=C(CSc1nc2ccc(Cl)cc2o1)NCc1ccc2c(c1)OCO2
Second: O=C(Nc1cccc([N+](=O)[O-])c1)c1ccc2c(c1)OCO2
The z-score of the first is higher: 0.168 for the first, -0.205 for the second.

Going from COC(=O)c1ccc(SC2CCCCC2)c([N+](=O)[O-])c1 to COC(=O)C1=C(CN2CCSCC2)NC(=O)NC1c1cc(C)ccc1C (centres undefined), the z-score falls from -0.116 to -0.254.

Going from Cc1c(C(=O)Nc2ccc(Br)cc2)cnn1C to O=C(Nc1nnc(N2CCCCCC2)s1)c1cc(-c2ccc(Br)cc2)on1, the z-score rises from -0.186 to -0.0797.

First: CCn1c(C)c(C(C)=O)c(N2CCCCC2)nc1=S
Second: CS(=O)(=O)N(CC(=O)N1CCCCCC1)c1ccc(Br)cc1
The z-score of the first is higher: 0.791 for the first, -0.166 for the second.

Compared with O=C(Nc1cccc(C(=O)N2CCOCC2)c1)c1ncn[nH]1, C/C(=N/NC(=O)c1ccoc1C)c1ccc(N2CCOCC2)cc1 is lower in z-score: -0.145 for the first, -0.148 for the second.

Going from Cc1nn(C)cc1CNC(=O)c1cccc(Cl)c1 to CCN(CC)c1ccc(NC(=O)c2cccnc2)c(C)c1, the z-score rises from -0.0315 to 0.991.

First: CN(CC(=O)O)S(=O)(=O)c1ccc(F)cc1
Second: CN(C)/C=C(/C(=O)c1ccc(Cl)cc1Cl)S(=O)(=O)c1ccc(Cl)cc1
The z-score of the first is higher: 0.145 for the first, 0.0336 for the second.

Going from COc1cccc(/C=N/NC(=O)c2[nH]nc3c2CCc2ccccc2-3)c1O to COc1cccc(/C=N/NC(=O)c2c(-c3ccccc3)noc2C)c1O, the z-score falls from 0.389 to -0.212.

Compared with CC(C)CC(=O)NC(=S)Nc1cccc(NC(=O)c2ccccc2Cl)c1, O=C(NC(=S)Nc1ccc(NC(=O)c2ccco2)cc1)c1ccccc1 is lower in z-score: -0.244 for the first, -0.416 for the second.

Going from Cc1ccccc1Nc1nc(N)nc(COC(=O)C(NC(=O)c2ccco2)C(C)C)n1 (centres undefined) to COc1ccc(OCc2nc(N)nc(Nc3ccccc3OC)n2)cc1, the z-score rises from -1.8 to 0.138.

First: CCOc1cccc(-c2nc(C(N)=O)c3[nH]c(=O)n(-c4cccc(Cl)c4)c3n2)c1O
Second: CCOC(=O)c1cc2n(c1C)-c1ccccc1C2=O
The z-score of the first is lower: -2.19 for the first, -0.128 for the second.

Going from Cc1cccc(Cc2c(C)nc3c(C(=O)N4CCN(Cc5ccc6c(c5)OCO6)CC4)cnn3c2C)c1 to COC(=O)c1ccccc1NC(=S)N(Cc1ccc2c(c1)OCO2)Cc1cc2cccc(C)c2[nH]c1=O, the z-score falls from -0.198 to -0.261.

First: O=C(CC1SC(=Nc2ccccc2)N(CCCCO)C1=O)NCc1ccccc1 (centres undefined)
Second: O=C(Cn1cccc1C(=O)c1ccccc1)NCc1ccccc1
The z-score of the first is lower: 0.00558 for the first, 0.198 for the second.

First: O=C1CCC(=O)N1CN(Cc1ccco1)CN1C(=O)CCC1=O
Second: Cc1n[nH]c(=O)nc1NCc1ccco1
The z-score of the first is higher: 1.32 for the first, -0.442 for the second.

Compared with C=C(c1ccc(O)cc1)c1ccc(O)cc1, Cc1c(Cl)cccc1NC(=O)c1ccc(OCC(=O)NCc2ccccc2)cc1 is lower in z-score: -0.139 for the first, -0.37 for the second.

Compared with Cc1cc(F)ccc1S(=O)(=O)Nc1c(C)n(C)n(-c2ccccc2)c1=O, COc1ccc(NS(=O)(=O)Cc2ccccc2)cc1OC is lower in z-score: -0.0341 for the first, -0.0457 for the second.

Going from CCOC(=O)NNC1CC(=O)N(c2ccccc2)C1=O (centres undefined) to O=C(Cc1ccccc1)NNC1CC(=O)N(c2ccccc2)C1=O (centres undefined), the z-score rises from -0.474 to -0.0913.

Going from CCNC(=S)N/N=C/c1cc(Br)cc(Br)c1OC to CCC(CC)C(=O)Nc1cc(OC)c(OC)cc1C(=O)O, the z-score falls from 0.524 to -0.741.

Compared with CCOc1ccc2c(c1)OC(c1ccc(C)cc1)(C(F)(F)F)NC2=O (centres undefined), CCOc1cc(/C=C2\C(=O)ON=C2C)ccc1OCc1ccccc1 is lower in z-score: 0.1 for the first, -0.275 for the second.

Compared with CC1(C)C2CCC1(CS(=O)(=O)N1CCOCC1)C(=O)C2 (centres undefined), CC(C)C(=O)Nc1ccccc1N1CCN(S(C)(=O)=O)CC1 is lower in z-score: -0.0543 for the first, -0.374 for the second.

Compared with CCCCCCCCCCCCCCCC[n+]1ccc(/C=N/O)cc1, COc1ccc2cc(CCNC(=O)CC(C)(C)C)c(=O)[nH]c2c1 is higher in z-score: -0.57 for the first, 0.0363 for the second.

Going from O=C(O)c1cccc(CSc2nc(-c3ccc(Cl)cc3)cc(C(F)(F)F)n2)c1 to O=C(/C=C/c1ccco1)NC(=S)Nc1cc(-c2nc3ccccc3s2)ccc1Cl, the z-score rises from -0.523 to -0.258.

Compared with CSCCC1NC2(C(=O)Nc3c(Cl)cccc32)[C@@H]2C(=O)N(C3CCCC3)C(=O)[C@H]12 (some centres undefined), COC(=O)C1(CO)NC(c2cccs2)C2C(=O)N(c3ccccc3)C(=O)C21 (centres undefined) is higher in z-score: -0.443 for the first, -0.22 for the second.

First: CC(C)Cn1nnc2c(=O)oc3ccccc3c21
Second: Cc1[nH]c2ccccc2c1C(=O)COC(=O)C1CCC(=O)N1 (centres undefined)
The z-score of the first is lower: -1.57 for the first, 0.0229 for the second.

Compared with C=CCn1c(CCC(=O)O)ccc1-c1ccc(OC)cc1, CC(C)Oc1ccc(NC(=O)CCC(=O)O)cc1 is lower in z-score: 0.0969 for the first, -0.0457 for the second.

Going from CCOc1ccc(NC(=O)CSc2nnc(Cn3cnc4ccccc43)n2C)cc1 to COc1cccc(-c2csc3nnc(SCC(=O)NCc4cccs4)n23)c1, the z-score rises from -0.333 to -0.315.

Compared with O=C(Cc1ccccc1)NC1CCN(C(=O)NCc2ccccc2)CC1, O=C1N/C(=C\c2ccccc2)C(O)=C1C=NCc1ccccc1 is lower in z-score: 0.253 for the first, -0.0728 for the second.

First: COc1ccc(COn2c(=O)c(C)[n+]([O-])c3ccccc32)cc1OC
Second: COc1ccc(C2CC(=O)n3c(nc4ccccc43)S2)cc1OC (centres undefined)
The z-score of the first is higher: 0.292 for the first, -0.117 for the second.

Going from Nc1nnc(SCC(=O)c2ccco2)s1 to Cn1cnnc1SCC(=O)Nc1sc2c(c1C(N)=O)CCC2, the z-score rises from -0.0604 to 0.737.

Going from Cc1ccc(SCCNS(=O)(=O)c2ccc3c(c2)OCCO3)cc1 to Cc1noc(C)c1S(=O)(=O)N(CC(=O)N1CCc2ccccc21)c1ccc(C(C)C)cc1, the z-score falls from -0.27 to -0.427.

First: COc1cccc(C2=N/C(=C\N(C)C)C(=O)O2)c1
Second: COn1c(=O)c(=O)n(OC)c2ccccc21
The z-score of the first is higher: -0.0956 for the first, -0.144 for the second.

First: Cc1c(NC(=S)Nc2ccccc2C(F)(F)F)cccc1[N+](=O)[O-]
Second: CCN(CC1COc2ccccc2O1)C(=S)Nc1ccccc1 (centres undefined)
The z-score of the first is higher: 0.111 for the first, -0.261 for the second.

Compared with CC1CCCC(C)N1CCCNC(=O)c1cc2c(=O)n(C)c3ccccc3c2n1C (centres undefined), Cc1[nH]c2ccccc2c1C(=O)CSc1nc2ccccc2c(=O)n1CCCN1CCOCC1 is lower in z-score: 2.79 for the first, 0.383 for the second.

Compared with O=C1CNC(=O)N1Cc1ccc(Br)cc1, Oc1ccc(Br)cc1/C=N/N1CCN(Cc2ccccc2)CC1 is lower in z-score: 0.0483 for the first, -0.134 for the second.

Compared with CCOC(=O)N1CCC(NC(=O)CCC(=O)N2CC(C)Oc3ccc(C)cc32)CC1 (centres undefined), CCOC(=O)c1cc(NC(=O)Nc2nc3ccccc3s2)c(C)nc1C is lower in z-score: 0.0805 for the first, -0.113 for the second.

First: COc1ccccc1N1CCN(Cc2ccc(O)c3ncccc23)CC1
Second: COc1ccc(Nc2ncc(C(=O)N3CCN(c4ccccc4OC)CC3)c3ccccc23)cc1
The z-score of the first is higher: -0.0396 for the first, -0.66 for the second.

Compared with Oc1c(C(c2cccs2)N2CCC3(CC2)OCCO3)sc2ncnn12 (centres undefined), O=c1cc(CSc2ccc(S(=O)(=O)N3CCCCC3)cn2)nc2sccn12 is lower in z-score: 0.13 for the first, -0.415 for the second.

Going from CC(=O)ON1C(C)(C)Cc2noc(N)c2C1(C)C to Cc1cc(C)c(C)c(S(=O)(=O)N2C(=S)NC(=O)C2C(C)C)c1C (centres undefined), the z-score falls from 0.801 to 0.083.

Compared with CC(C)[C@H](NC(=O)c1cccc(S(=O)(=O)N2CCCC2)c1)c1nc2ccccc2[nH]1, COC(=O)c1cc(OC)c(OC)cc1NC(=S)N1CCN(Cc2ccccc2)CC1 is higher in z-score: 0.167 for the first, 0.237 for the second.

Going from CCCC(=O)Nc1ccc(NC(=O)c2ccccn2)cn1 to CCC(=O)Nc1cccc(SC)c1, the z-score falls from -0.311 to -0.659.

Compared with CCOC(=O)Cc1csc(NC(=O)c2sc3nc4c(C)cc(C)cc4cc3c2N)n1, COc1cc2c(cc1NC(=O)COC(=O)c1ccc(C(C)(C)C)cc1)oc1ccccc12 is higher in z-score: -0.144 for the first, 0.126 for the second.

Going from NC(=O)COc1ccc(/C=N/NC(=O)C2CCCN2S(=O)(=O)c2ccc(Cl)cc2)cc1 (centres undefined) to O=C1NN(c2ccccc2)C(=O)/C1=C/c1coc2ccccc2c1=O, the z-score falls from -0.275 to -0.738.

O=C1NC2(Nc3ccccc31)C(=O)Nc1ccccc12 (centres undefined) gave a z-score of 0.475.

For O=C(NC(=S)Nc1ccc(N2CCOCC2)c(Cl)c1)c1cncc(Br)c1, the z-score was active: 7.69.
O=c1c(O)c(-c2cccs2)oc2ccccc12 was tested, and the z-score was active: 17.2.
S=c1nc(-c2ccc(Br)cc2)oc2c1CCCC2 was tested, and the z-score was active: 4.2.
With COc1ccc(NC(=O)C(=O)NNC(=O)c2cccs2)c(OC)c1 the z-score was active: 5.95.
For CNC(=S)SCCOc1ccc(C)cc1, the z-score was active: 6.37.

Source: PubChem BioAssay AID488969 (Vanderbilt High Throughput Screening Facility, 2010)
